# Reference: PubChem BioAssay (Tox21)
# Several values for one entry are separate records, joined by “and”; a condition that tells them apart may be missing. Identical values can stand only once. The shares of active, inactive and inconclusive entries below differ from those in the screen. For part of these data: Potencies beside an inconclusive call are fits to weak or partial responses and may not hold up. Activity calls are given as the source filed them. Unless noted, calls come from the whole dose curve; as a rule, active = well fitted curve in the direction sought with a large enough effect in the repeat runs; inconclusive = weak or mixed curves; inactive = no such curve, though single readings can be large; an effect the other way counts as inactive or inconclusive.
# What was measured:
# [1] = molecular target: Progesterone receptor (Homo sapiens) (UniProt P06401); assay: qHTS assay to identify small molecule antagonists of the progesterone receptor (PR) signaling pathway (AID 1346795; active = well fitted inhibition curve with a large enough effect in the signal ratio in the repeat runs, not every such curve was filed as active; inconclusive = weak or mixed curves; the % refers to the signal ratio; note: potency is the fitted concentration of half-maximal effect; for activity change, negative = inhibition: % is set by controls: 0 for no effect and ±100 for the full control effect); settings: PR-UAS-bla HEK293T, beta-lactamase FRET ratio, 16 h; activity change, negative = inhibition: at 92.4 µM (top of the series) unless noted
# UniProt P06401, sequence (P06401 whole entry, looked up): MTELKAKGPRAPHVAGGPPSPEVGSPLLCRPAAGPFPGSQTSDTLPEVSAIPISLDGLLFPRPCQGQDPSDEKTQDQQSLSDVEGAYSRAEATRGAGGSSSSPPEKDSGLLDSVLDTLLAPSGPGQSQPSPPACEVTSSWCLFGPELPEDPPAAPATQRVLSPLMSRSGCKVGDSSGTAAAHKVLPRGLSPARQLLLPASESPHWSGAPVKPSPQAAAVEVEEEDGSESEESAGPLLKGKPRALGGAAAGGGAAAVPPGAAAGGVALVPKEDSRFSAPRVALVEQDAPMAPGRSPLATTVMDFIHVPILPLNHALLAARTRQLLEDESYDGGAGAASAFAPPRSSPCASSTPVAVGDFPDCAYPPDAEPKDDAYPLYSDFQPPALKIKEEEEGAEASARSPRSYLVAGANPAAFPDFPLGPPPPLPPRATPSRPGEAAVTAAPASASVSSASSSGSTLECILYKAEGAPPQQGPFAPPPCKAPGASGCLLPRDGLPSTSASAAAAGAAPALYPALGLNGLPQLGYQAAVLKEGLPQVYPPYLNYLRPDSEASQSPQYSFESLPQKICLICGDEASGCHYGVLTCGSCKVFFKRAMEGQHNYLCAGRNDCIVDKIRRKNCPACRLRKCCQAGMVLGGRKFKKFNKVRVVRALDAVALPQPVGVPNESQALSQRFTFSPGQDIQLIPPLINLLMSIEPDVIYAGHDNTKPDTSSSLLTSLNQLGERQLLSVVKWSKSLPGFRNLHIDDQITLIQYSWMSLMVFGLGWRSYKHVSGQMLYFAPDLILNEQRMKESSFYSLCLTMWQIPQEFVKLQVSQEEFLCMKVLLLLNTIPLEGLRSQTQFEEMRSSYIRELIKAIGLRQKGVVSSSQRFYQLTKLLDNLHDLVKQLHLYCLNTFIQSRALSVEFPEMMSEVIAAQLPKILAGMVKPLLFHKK
# Procedure, shortened: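 Antagonist mode: compounds tested against 1 nM (final) promegestone stimulation in HEK293T cells expressing PR-UAS-bla reporter, 16 hr at 37C, 5% CO2; beta-lactamase activity detected via B/G FRET substrate after 2 hr at room temperature.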
# [2] = qHTS assay to identify small molecule antagonists of the progesterone receptor (PR) signaling pathway - cell viability counter screen (AID 1346798); note: potency is the fitted concentration of half-maximal effect; nearly all actives have a fitted effect of over 50% in size
# Procedure, shortened: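 Counter screen for cytotoxicity: viability of PR-UAS-bla HEK293T cells was measured with CellTiter-Glo luminescence following 16 hr compound exposure in the presence of R5020.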
# [3] = qHTS assay to identify small molecule antagonists of the TGF-beta/Smad signaling pathway (AID 1346924; active = well fitted inhibition curve with a large enough effect in the signal ratio in the repeat runs, not every such curve was filed as active; inconclusive = weak or mixed curves; the % refers to the signal ratio); settings: SBE-bla HEK293T, TGF-beta/Smad reporter, beta-lactamase ratio; activity, negative = inhibition: at 76.8 µM (top of the series) unless noted
# Procedure, shortened: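 SBE-bla HEK 293T cells were plated overnight, then received compound in DMSO plus TGF-beta1 (added as a 0.25 ng/mL solution) and were incubated 5 h at 37 C. Beta-lactamase reporter activity was read after 2 h at room temperature with LiveBLAzer B/G FRET substrate (ex 405, em 460/530 nm).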
# [4] = Caspase-3/7 induction in CHO-K1 cells by small molecules, qHTS cell viability counter screen (AID 1346979); settings: CellTiter-Fluor fluorescence, 17 h; activity change, negative = cytotoxicity: at 92.4 µM (top of the series); note: potency is the fitted concentration of half-maximal effect; nearly all actives have a fitted effect of over 35% in size
# Procedure, shortened: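 Cytotoxicity counter screen run in parallel with the caspase-3/7 assay: CHO-K1 cells, 16hr compound treatment at 37C, then CellTiter-Fluor for 1hr before fluorescence reading.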
# [5] = molecular target: Nuclear receptor subfamily 1 group I member 2 (Homo sapiens) (UniProt O75469); assay: Human pregnane X receptor (PXR) small molecule agonists, qHTS assay (AID 1346982); note: potency is the fitted concentration of half-maximal effect; nearly all actives have a fitted effect of over 35% in size
# UniProt O75469, sequence (O75469 whole entry, looked up): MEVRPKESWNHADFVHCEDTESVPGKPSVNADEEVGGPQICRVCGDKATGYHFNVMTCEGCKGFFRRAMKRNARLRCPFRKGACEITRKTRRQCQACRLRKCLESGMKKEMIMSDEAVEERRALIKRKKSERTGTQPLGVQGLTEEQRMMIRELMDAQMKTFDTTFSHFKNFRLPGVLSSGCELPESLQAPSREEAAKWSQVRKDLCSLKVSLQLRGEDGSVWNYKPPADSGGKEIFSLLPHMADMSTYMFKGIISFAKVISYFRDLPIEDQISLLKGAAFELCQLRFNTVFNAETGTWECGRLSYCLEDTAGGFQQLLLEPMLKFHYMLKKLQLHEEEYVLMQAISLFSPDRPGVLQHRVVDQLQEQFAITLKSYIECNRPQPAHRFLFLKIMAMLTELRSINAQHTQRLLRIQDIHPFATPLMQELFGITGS
# Procedure, shortened: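 Agonist mode qHTS: PXR-Luc HepG2 cells plated 5 hr before DMSO-dissolved compounds were pinned in, cultured 24 hr at 37 C, 5% CO2; ONE-Glo luminescence readout.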
# [6] = qHTS assay to identify small molecule agonists of the progesterone receptor (PR) signaling pathway - cell viability counter screen (AID 1346799; calls by dose curve; note: nearly all actives have a fitted effect of over 45% in size; note: potency is the fitted concentration of half-maximal effect; for activity change, negative = cytotoxicity: % is set by controls: 0 for no effect and ±100 for the full control effect)
# Procedure, shortened: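 Cells (PR-UAS-bla HEK293T) are plated at 3,000/well in 2% charcoal-stripped FBS medium, rested 6 hr, dosed and incubated 16 hr at 37C. CellTiter-Glo is then added and luminescence measured after 30 min at room temperature.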
# [7] = molecular target: Cytochrome P450 2D6 (Homo sapiens) (UniProt P10635); assay: Cytochrome P450 Family 2 Subfamily D Member 6 (CYP2D6) small molecule antagonists: luciferase reporter qHTS assay (AID 1671196); note: nearly all actives have a fitted effect of over 50% in size; note: potency is the fitted concentration of half-maximal effect
# UniProt P10635, sequence (P10635 whole entry, looked up): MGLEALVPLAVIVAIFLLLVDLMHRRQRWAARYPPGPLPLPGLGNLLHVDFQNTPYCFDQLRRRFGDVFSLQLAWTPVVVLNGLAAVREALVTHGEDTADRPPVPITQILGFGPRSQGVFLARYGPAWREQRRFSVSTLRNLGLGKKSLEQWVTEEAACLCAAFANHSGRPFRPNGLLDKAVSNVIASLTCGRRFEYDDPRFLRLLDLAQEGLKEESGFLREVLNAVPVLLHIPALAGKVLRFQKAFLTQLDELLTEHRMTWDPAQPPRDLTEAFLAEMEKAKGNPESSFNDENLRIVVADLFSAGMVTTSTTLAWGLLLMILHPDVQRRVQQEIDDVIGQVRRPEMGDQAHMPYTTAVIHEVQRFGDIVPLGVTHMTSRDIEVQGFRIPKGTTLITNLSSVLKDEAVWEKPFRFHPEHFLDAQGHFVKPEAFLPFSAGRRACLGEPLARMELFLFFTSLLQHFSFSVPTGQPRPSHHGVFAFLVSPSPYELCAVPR
# Procedure, shortened: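 P450-Glo format: CYP2D6 converts a proluciferin substrate to luciferin in an NADPH-driven reaction lasting 1 h at room temperature. Light output, proportional to CYP2D6 activity, reflects interference by test chemicals.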
# [8] = molecular target: Cytochrome P450 2C19 (Homo sapiens) (UniProt P33261); assay: Cytochrome P450 Family 2 Subfamily C Member 19 (CYP2C19) small molecule antagonists: luciferase reporter qHTS assay (AID 1671197); note: nearly all actives have a fitted effect of over 65% in size; note: potency is the fitted concentration of half-maximal effect; for activity change, negative = inhibition: % is set by controls: 0 for no effect and ±100 for the full control effect
# UniProt P33261, sequence (P33261 whole entry, looked up): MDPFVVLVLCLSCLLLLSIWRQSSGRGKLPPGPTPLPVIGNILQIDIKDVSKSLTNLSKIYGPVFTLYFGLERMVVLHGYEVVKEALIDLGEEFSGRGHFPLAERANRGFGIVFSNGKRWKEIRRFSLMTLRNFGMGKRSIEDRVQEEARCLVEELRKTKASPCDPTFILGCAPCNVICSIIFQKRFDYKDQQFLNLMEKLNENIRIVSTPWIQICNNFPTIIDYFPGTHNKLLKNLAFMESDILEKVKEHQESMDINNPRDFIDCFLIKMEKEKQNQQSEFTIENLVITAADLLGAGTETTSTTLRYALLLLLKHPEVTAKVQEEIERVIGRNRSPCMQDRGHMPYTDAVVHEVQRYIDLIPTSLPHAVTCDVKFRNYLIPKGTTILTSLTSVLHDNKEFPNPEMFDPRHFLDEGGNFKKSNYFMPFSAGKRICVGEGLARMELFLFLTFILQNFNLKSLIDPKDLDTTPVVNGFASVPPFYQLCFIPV
# Procedure, shortened: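 P450-Glo CYP2C19 screening system; proluciferin substrate; DMSO compound stocks; 10 min RT preincubation; NADPH regeneration, 1 h at 37C; luciferin detection reagent, 20 min RT; luminescence as RLU.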
# [9] = molecular target: Cytochrome P450 2C9 (Homo sapiens) (UniProt P11712); assay: Cytochrome P450 Family 2 Subfamily C Member 9 (CYP2C9) small molecule antagonists: luciferase reporter qHTS assay (AID 1671198); note: nearly all actives have a fitted effect of over 50% in size; note: potency is the fitted concentration of half-maximal effect; for activity change, negative = inhibition: % is set by controls: 0 for no effect and ±100 for the full control effect
# UniProt P11712, sequence (P11712 whole entry, looked up): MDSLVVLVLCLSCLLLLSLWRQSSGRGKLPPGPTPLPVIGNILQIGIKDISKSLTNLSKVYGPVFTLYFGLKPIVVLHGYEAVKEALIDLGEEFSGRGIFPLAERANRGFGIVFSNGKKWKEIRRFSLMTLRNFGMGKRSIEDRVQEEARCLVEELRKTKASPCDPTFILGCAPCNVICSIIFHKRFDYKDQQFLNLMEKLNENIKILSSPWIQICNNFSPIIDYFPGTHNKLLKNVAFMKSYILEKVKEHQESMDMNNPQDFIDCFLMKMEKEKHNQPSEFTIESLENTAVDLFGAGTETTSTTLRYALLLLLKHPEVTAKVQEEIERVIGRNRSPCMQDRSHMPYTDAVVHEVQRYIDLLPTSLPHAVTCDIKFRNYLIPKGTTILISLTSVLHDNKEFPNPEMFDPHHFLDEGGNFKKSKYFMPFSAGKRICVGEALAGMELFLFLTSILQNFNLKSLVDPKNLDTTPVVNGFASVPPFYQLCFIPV
# Procedure, shortened: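 P450-Glo proluciferin substrate with CYP2C9 enzyme; 10 min RT preincubation, then NADPH regeneration 1 h at 37C; luciferin detection reagent 20 min RT, luminescence in relative luminescence units.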
# [10] = Caspase-3/7 induction in HepG2 cells by small molecules, qHTS assay (AID 1346978); note: potency is the fitted concentration of half-maximal effect; nearly all actives have a fitted effect of over 15% in size
# Procedure, shortened: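 Wild-type HepG2 cells, 2,000/well, settled 5 hr at 37 C and 5% CO2, then compound-treated for 17 hr; caspase-3/7 activity read by luminescent Caspase-Glo 3/7 after 30 min at room temperature.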
# [11] = Caspase-3/7 induction in HepG2 cells by small molecules, qHTS cell viability counter screen (AID 1346981); note: nearly all actives have a fitted effect of over 30% in size; note: potency is the fitted concentration of half-maximal effect
# Procedure, shortened: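 Steps: seed 2,000 HepG2 cells per well; incubate 5 hr at 37 C; pin-add compounds in DMSO; incubate 16 hr; add CellTiter-Fluor; after 1 hr at 37 C and 5% CO2, read fluorescence.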
# [12] = qHTS assay to identify small molecule agonists of the TGF-beta/Smad signaling pathway (AID 1346859; active = well fitted activation curve with a large enough effect in the signal ratio in the repeat runs, not every such curve was filed as active; inconclusive = weak or mixed curves; the % refers to the signal ratio; note: potency is the fitted concentration of half-maximal effect); settings: SBE-bla HEK293T, TGF-beta/Smad beta-lactamase reporter, 5 h; activation: at 76.8 µM (top of the series)
# Procedure, shortened: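 Reporter line: HEK 293T with stably integrated SBE-controlled beta-lactamase. Compound exposure lasts 5 hr at 37 C and 5% CO2; substrate loading follows for 2 hr at room temperature, with emission read at 460 and 530 nm.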
# [13] = Human pregnane X receptor (PXR) small molecule agonists, qHTS cell viability counter screen (AID 1346977); note: potency is the fitted concentration of half-maximal effect; nearly all actives have a fitted effect of over 50% in size
# Procedure, shortened: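 Cytotoxicity counter screen run in the same wells as the PXR luciferase assay, using PXR-Luc HepG2 cells in charcoal-stripped serum medium. Viability: CellTiter-Fluor fluorescence after 24hr compound treatment.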
# [14] = Caspase-3/7 induction in CHO-K1 cells by small molecules, qHTS assay (AID 1346980); note: % is set by controls: 0 for no effect and ±100 for the full control effect; nearly all actives have a fitted effect of over 15% in size
# Procedure, shortened: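 Wild-type CHO-K1 cells exposed to compounds for 17hr at 37 C, 5% CO2. Caspase-3/7 activity then measured by Caspase-Glo 3/7 luminescence after 30min at room temperature.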
# [15] = molecular target: Nuclear receptor subfamily 1 group I member 2 (Homo sapiens) (UniProt O75469); assay: Human pregnane X receptor (PXR) activation by small molecules, qHTS assay (AID 1346985); note: potency is the fitted concentration of half-maximal effect; nearly all actives have a fitted effect of over 40% in size
# Procedure, shortened: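 DPX-2 cells (HepG2 co-transfected with a PXR response element and a CYP3A4-promoter luciferase construct) were seeded at 2,000 per well, rested 5 hr at 37C, then exposed to DMSO-dissolved compounds for 24 hr. Activation was read as luciferase luminescence.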
# Tags give direction and shape of the fitted curve or compound fluorescence and quenching.
compound,measurement,setting,value
Cn1c(=O)cc(Oc2ccc(F)cc2F)c2cnc(NCC(C)(C)O)nc21,Potency,[1],"inconclusive: 27.3 µM [falling, partial curve]"
same,Potency,[2],"inconclusive: 54.5 µM [rising, single point]"
same,"activity, negative = inhibition",[3],inconclusive: -0.26%
same,Potency,[4],inconclusive: 68.6 µM [cytotoxic]
same,Potency,[5],active: 43.3 µM
CN(C)Cc1cc(C(C)(C)C)c(O)c(C(C)(C)C)c1,Potency,[1],"inconclusive: 48.6 µM [falling, partial curve]"
same,Potency,[2],"inconclusive: 77 µM [rising, single point]"
same,Potency,[6],"inconclusive: 77 µM [rising, single point]"
same,Potency,[5],"inconclusive: 61.1 µM [activator, single point]"
same,Potency,[7],"inconclusive: 31.7 µM [inhibitor, partial curve]"
same,Potency,[8],active: 10 µM
same,Potency,[9],active: 11.2 µM
OCCCCCO,Potency,[1],inactive
same,Potency,[2],"inconclusive: 80.4 µM [rising, single point]"
same,Potency,[6],inactive
same,Potency,[8],inactive
same,Potency,[9],inactive
CC1C2CC(CC2C2CCCC(O)C2)C1(C)C (stereo unspecified),Potency,[1],"inconclusive: 48.6 µM [falling, partial curve]"
same,Potency,[2],"inconclusive: 0.969 µM [cytotoxic, single point]"
same,"activity, negative = inhibition",[3],inconclusive: -22.1%
same,Potency,[10],"inconclusive: 68.6 µM [activator, single point]"
same,Potency,[4],active: 68.6 µM
same,Potency,[11],inactive
same,Potency,[9],active: 35.6 µM
CC(C)OC(=O)c1cc2c(OCC(O)CNC(C)(C)C)cccc2[nH]1 (stereo unspecified),"activity change, negative = inhibition",[1],inconclusive: 5.47% [at 42.5 µM]
same,Potency,[2],"inconclusive: 3.35 µM [cytotoxic, full curve, poor fit]"
same,Potency,[6],"inconclusive: 6.68 µM [cytotoxic, full curve]"
same,Potency,[9],inactive
Cc1cc(C(C#N)c2ccc(Cl)cc2)c(Cl)cc1NC(=O)c1cc(I)cc(I)c1O (stereo unspecified),Potency,[1],active: 29.8 µM
same,Potency,[2],"inconclusive: 33.5 µM [cytotoxic, single point]"
same,Potency,[6],"inconclusive: 6.68 µM [rising, full curve, poor fit]"
same,Potency,[11],"inconclusive: 33.5 µM [cytotoxic, single point]"
same,Potency,[5],"inconclusive: 33.5 µM [activator, single point]"
Nc1ccc2c3c(cccc13)-c1ccccc1-2,Potency,[1],"inconclusive: 12.3 µM [rising, full curve]"
same,Potency,[2],"inconclusive: 69.3 µM [cytotoxic, single point]"
same,Potency,[12],"inconclusive: 3.93 µM [fluorescent, full curve]"
same,"activity, negative = inhibition",[3],inconclusive: -5.67%
same,Potency,[13],"inconclusive: 61.8 µM [rising, partial curve]"
same,Potency,[10],"inconclusive: 77.7 µM [activator, partial curve, poor fit]"
same,Potency,[4],"inconclusive: 55 µM [rising, partial curve]"
same,Potency,[11],"inconclusive: 61.8 µM [rising, partial curve]"
same,Potency,[7],inactive
same,Potency,[9],active: 32.1 µM
CC(C)C(OC(=O)c1ccccc1)C(C)(C)COC(=O)c1ccccc1 (stereo unspecified),Potency,[1],active: 19.3 µM
same,Potency,[2],"inconclusive: 0.217 µM [cytotoxic, single point]"
same,Potency,[6],"inconclusive: 19.3 µM [rising, full curve]"
same,Potency,[5],inconclusive: 61.1 µM [activator]
COc1ccc(-c2coc3cc(O)cc(O)c3c2=O)cc1,Potency,[1],inconclusive: 6.16 µM [full curve] and active: 6.11 µM
same,Potency,[2],"inconclusive: 4.9 µM [cytotoxic, full curve, poor fit]"
same,Potency,[12],"inconclusive: 22.1 µM [rising, partial curve, poor fit]"
same,Potency,[13],"inconclusive: 70.8 µM [cytotoxic] and inconclusive: 68.6 µM [cytotoxic, single point]"
same,Potency,[4],"active: 69.1 µM and inconclusive: 68.6 µM [cytotoxic, single point]"
same,Potency,[11],"inconclusive: 77.6 µM [cytotoxic, partial curve] and inconclusive: 68.6 µM [cytotoxic]"
same,Potency,[5],active: 30.9 µM and active: 30.6 µM
same,Potency,[7],"inconclusive: 71 µM [inhibitor, partial curve]"
same,Potency,[9],"inconclusive: 63.8 µM [inhibitor, partial curve, poor fit] and inconclusive: 71 µM [inhibitor, single point]"
OCCN(CCO)CCN(CCO)CCO,Potency,[1],"inconclusive: 48.6 µM [rising, partial curve, poor fit]"
same,Potency,[2],"inconclusive: 54.5 µM [cytotoxic, partial curve]"
same,"activity, negative = inhibition",[3],inconclusive: 18.8%
same,Potency,[8],inactive
CC(C)N=C=NC(C)C,Potency,[1],inactive
same,Potency,[2],"inconclusive: 15.1 µM [cytotoxic, single point]"
same,Potency,[14],inactive
CN1CCN(C2=Nc3cc(F)ccc3Cc3ccccc32)CC1,Potency,[1],active: 18.8 µM
same,Potency,[2],"inconclusive: 15 µM [cytotoxic, partial curve]"
same,Potency,[15],active: 22.4 µM
